Among the data in PubChem BioAssay AID463173 (ICCB-Longwood Screening Facility, Harvard Medical School, 2010) are survival values, retold here.

SMILES strings stand for the structures. About 4,300 (8.3%) of roughly 52,000 compounds were called active. No stated cut-off is given here; in the data, active means survival mostly below about 52% (no sharp cut-off); inactive means mostly above about 56%. This is one part of the list.

This test relates to DeltatarO mutant. Description: growth inhibition of S. aureus wild type versus tarO mutant, primary screen, teichoic acid synthesis inhibitors, RN4220, OD600 (AID 463173). The note with it: OD600, 18 h, hits give low values, screened at 18.75 µg/mL (by protocol).
With `CCCn1cc(S(=O)(=O)c2cccc(Cl)c2)c(=O)c2cc(F)c(N3CCCC3)cc21`, the survival was inactive: 83%.

`CC1(C)CC(=O)C(C(=O)/C=C/c2ccco2)C(=O)C1`: the survival is inactive: 95%.

For the compound `CCOC(=O)c1cc(-c2ccc(C)cc2)n(CC(=O)Nc2ccc(OC)cc2OC)c1C`, the survival was inactive: 97%.

With `Cc1ccc(NC(=O)CSc2nccn2C2CCCC2)cc1Cl`, the survival was inactive: 99%.

On to `COc1ccc(C(=O)CSc2nccc(=O)[nH]2)cc1`, for which the survival was inactive: 83%.

For `Cc1cc2ncn(S(=O)(=O)c3ccc(S(=O)(=O)N(C)C)cc3)c2cc1C`, the survival was inactive: 93%.

`N#C/C(=C\c1ccc(-c2cccc(Cl)c2)o1)C(=O)Nc1cccc(C(F)(F)F)c1`: the survival is inactive: 118%.

With `Cc1oc2ncnc(N3CCOCC3)c2c1C(=O)NCc1ccc(Cl)cc1`, the survival was inactive: 94%.

For `Fc1ccc(N2CCN(c3ncnc4[nH]ncc34)CC2)cc1`, the survival is inactive: 95%.

As for `CC(C)OCCCNC(=O)CN1C(=O)c2ccccc2Sc2ncccc21`, the survival was inactive: 93%.

On to `O=C(Nc1cccc2c1CCCC2)N1CCOc2ccc(Cl)cc21`, for which the survival was inactive: 45%.

`CN1c2ccccc2N(C)C1c1cccs1`: the survival is inactive: 89%.

On to `CCCC(=O)Nc1ccc2nc(SCC(=O)N3CCOCC3)sc2c1`, for which the survival was inactive: 80%.

For `Cc1nn2c(=O)cc(COC(=O)c3ccc(NC(=O)COc4ccccc4F)cc3)nc2s1`, the survival is inactive: 100%.

As to `Cc1nc2c(c(C)nn2C(C)(C)C)c(C)c1CCC(=O)Nc1ccc(F)cc1`, the survival is inactive: 77%.

On to `CC(=O)NC(CC(=O)O)c1ccc(F)cc1` (stereo unspecified), for which the survival is inactive: 86%.

For the compound `Cc1ccc(CNC(=O)Cn2c3ncccc3c(=O)n2-c2ccc(C)cc2)cc1`, the survival is inactive: 116%.

Consider `CC(C)c1cc(-c2nc(-c3cccc(Cl)c3)no2)n[nH]1`, for which the survival is inactive: 119%.

For `COc1ccc(C)c2sc(N3CCN(C(=O)c4ccco4)CC3)nc12`, the survival was active: 17%.

As for `CCOc1ccc(CNC(=O)CSc2c3c(nc4ccc(Cl)cc24)CCCC3)cc1`, the survival is inactive: 70%.

Turning to `COCCCNC(=O)c1ccc(Cn2c(=O)c3cccn3c3cccnc32)cc1`, the survival was inactive: 70%.

For the compound `Cc1nn(CC(=O)NCc2ccc(N(C)C)cc2)c(=O)c2nn(-c3ccccc3)c(C)c12`, the survival is inactive: 83%.

As to `COc1ccc(C(CC(=O)Nc2ccc(Br)cn2)N2Cc3ccccc3C2=O)cc1` (stereo unspecified), the survival is inactive: 75%.

Take `COc1ccccc1CCNC(=O)C1CCN(c2nnc(C)c3c(C)n(-c4ccc(C)cc4)nc23)CC1`: the survival was inactive: 85%.

Turning to `Cn1ccnc1-c1ccc(-c2nccn2C)cc1`, the survival was inactive: 83%.

Turning to `Cc1ccc(Cn2c(CN3CCN(c4cccc(Cl)c4)CC3)nc3c2c(=O)n(C)c(=O)n3C)cc1`, the survival is inactive: 107%.

As for `O=[N+]([O-])c1ccc(O)c(-c2ccnc3cc(-c4ccccc4)nn23)c1`, the survival is active: 20%.

In the case of `Cn1c(C(=O)NCc2cccc(Cl)c2)cc2oc3ccccc3c21`, the survival was inactive: 85%.

With `CC(=O)c1ccc(N2CCN(C(=O)CCCn3c(=O)[nH]c4ccsc4c3=O)CC2)cc1`, the survival is inactive: 82%.

Consider `CCOc1ccc(CC(C(=O)NN)C(=O)NN)cc1CN(C)C`, for which the survival is inactive: 86%.

For the compound `Cc1ccc(NC(=O)CN2C(=O)CC(c3ccc(C)c(C)c3)=Nc3ccccc32)cc1`, the survival is inactive: 78%.

For `CCC(CC)C(=O)Nc1cc(-c2nc3cccnc3s2)ccc1C`, the survival was active: 57%.

On to `Cc1cccc(C)c1OC(=O)CSc1nnc(-c2ccc3c(c2)OCO3)o1`, for which the survival was inactive: 77%.

Take `COc1ccc(Nc2c(-c3ccsc3)nc3nc(C)cc(C)n23)cc1`: the survival is inactive: 92%.

Consider `Cc1c(C(=O)O)sc2nc(-c3ccccc3)cn12`, for which the survival was inactive: 101%.

Regarding `COc1ccc(CCNC(=O)c2c(C)oc3ncn(CC(C)C)c(=O)c23)c(OC)c1`, the survival was inactive: 95%.

In the case of `O=C(NC1CCCCC1)C(c1ccncc1)N(CC1CCCO1)C(=O)C(F)(F)F` (stereo unspecified), the survival is inactive: 78%.

On to `CCCNc1nc(Cl)nc(Cl)n1`, for which the survival is active: 62%.

In the case of `Cc1ccc2c(=O)cc(C(=O)Nc3c(C(=O)c4ccc(F)cc4)oc4ccccc34)oc2c1C`, the survival was inactive: 65%.

Turning to `CSc1nn(CC(=O)Nc2cc(C)ccc2C)c(N)c1S(=O)(=O)c1ccccc1`, the survival is inactive: 63%.

For the compound `O=C(Nc1nnc(S(=O)(=O)N2CCCCCC2)s1)c1ccc(Cl)cc1`, the survival was inactive: 62%.

Turning to `COc1ccc(NC(=O)CC(C)S(=O)(=O)c2cc3c(cc2C)NC(=O)CO3)cc1OC` (stereo unspecified), the survival is inactive: 88%.

`CC(C)CC(=O)OCc1cc(=O)n2nc(C3CCCCC3)sc2n1`: the survival is inactive: 89%.

In the case of `COc1ccccc1CNC(=O)C1CCN(c2nnc(C)c3c(C)n(-c4ccccc4)nc23)CC1`, the survival is inactive: 104%.

In the case of `CCOC(=O)c1c(-c2ccccc2)oc2ccc(OCc3cccc(Br)c3)cc12`, the survival is active: 38%.

In the case of `O=C1CCSC2(C(=O)N(Cc3ccc(F)cc3)c3ccccc32)N1c1cccc(F)c1` (stereo unspecified), the survival was inactive: 94%.

For the compound `CCN1C(=O)c2ccccc2S(=O)c2ccc(C(=O)NCc3ccc(Cl)cc3)cc21` (stereo unspecified), the survival is inactive: 51%.

Turning to `O=C(Cn1cc(C(=O)c2cccs2)c2ccccc21)Nc1ccc(Br)cc1`, the survival is inactive: 127%.

As to `COc1cccc(C(c2sc3nc(-c4ccco4)nn3c2O)N2CCN(C)CC2)c1` (stereo unspecified), the survival was inactive: 88%.

For the compound `COc1ccc(CNC(=O)CN(C)S(=O)(=O)c2ccc3c(c2)c(=O)n(C)c(=O)n3C)cc1`, the survival is inactive: 144%.

As to `COc1ccc2[nH]c(=O)c(C(c3nnnn3Cc3ccccc3)N(C)C3CCCCC3)cc2c1` (stereo unspecified), the survival is inactive: 68%.

Turning to `COc1ccc(C(=O)Oc2cc(-c3ccc(OC)c(OC)c3)cc(=O)c3c(C)oc(C)c23)cc1`, the survival is inactive: 81%.

For `CCS(=O)(=O)Nc1ccc(-c2cn3c(C)csc3n2)cc1`, the survival was inactive: 88%.

Consider `COC(=O)c1c(C)sc(-c2c(-c3ccc(OC)c(F)c3)[nH]c3c2c(=O)n(C)c(=O)n3C)c1O`, for which the survival was inactive: 120%.

Turning to `CCSc1nc2ccccc2c(OCc2cc(C(=O)OC)ccc2OC)c1C(=O)OC`, the survival is active: -12%.

As for `CC(C)C(=O)Nc1nnc(S(=O)(=O)N2c3ccccc3CC2C)s1` (stereo unspecified), the survival is inactive: 87%.

For the compound `CC1(C)Cc2ccccc2-c2nc(NN)[nH]c(=O)c21`, the survival is inactive: 67%.

Take `CCCOc1cccc(C(=O)Nc2cccc(NC(=O)c3ccc(Cl)cc3Cl)c2)c1`: the survival was inactive: 88%.

With `Cc1ccc(C(C)C)c(OCC(=O)Nc2ccc(O)c(-c3nc4cc(Cl)ccc4o3)c2)c1`, the survival was inactive: 73%.

Take `CCc1ccccc1NC(=O)Cn1ccn(Cc2ccccc2)c(=O)c1=O`: the survival is inactive: 80%.

With `O=C(NC1CCS(=O)(=O)C1)c1ccccc1C(=O)c1ccccc1` (stereo unspecified), the survival was inactive: 87%.

For the compound `COc1ccc(NC(=O)CCc2nnc3n(Cc4ccc(C)cc4)c(=O)c4ccccc4n23)cc1`, the survival is inactive: 59%.

Regarding `CC1CCCCN1C(=O)CCS(=O)(=O)c1cc2c(cc1Cl)NC(=O)CO2` (stereo unspecified), the survival was inactive: 89%.

For `COc1cccc(CNCCCSc2nnnn2C)c1OC`, the survival was inactive: 73%.

As for `Cc1cccc(C(=O)N2CCc3cc(CNS(=O)(=O)c4ccc(F)c(Cl)c4)ccc32)c1`, the survival was inactive: 88%.

Regarding `O=C(Nc1ccccc1)N(Cc1cccc(Cl)c1)c1ccccn1`, the survival was active: 37%.

Consider `CC(=O)c1ccc(N2CCN(C(=O)Nc3ccc(C(C)C)cc3)CC2)cc1`, for which the survival was inactive: 60%.

With `COc1ccc(CCNC(=O)c2ccc3c(c2)ncn3-c2ccc(C(C)C)cc2)cc1OC`, the survival is inactive: 96%.

Take `CC(C)c1ccc2occ(CC(=O)N(Cc3ccc(F)cc3)C3CCS(=O)(=O)C3)c2c1` (stereo unspecified): the survival is inactive: 61%.

As to `Cc1cc(/C(O)=C2\C(=O)C(=O)N(CCCN(C)C)C2c2ccc(O)cc2)ccc1OCC(C)C` (stereo unspecified), the survival is inactive: 109%.

Regarding `Cn1c2ccccc2c2cnn(CC(=O)NCCCN3CCN(c4ccccc4F)CC3)c(=O)c21`, the survival was inactive: 80%.

As to `Cc1cc(N)n2ncc(-c3ccccc3)c2n1`, the survival was inactive: 95%.

For `CCC(=O)NCC1COc2ccccc2O1` (stereo unspecified), the survival is inactive: 91%.

For the compound `COc1ccc(NS(=O)(=O)c2ccc3[nH]c4c(c3c2)CCCCC4)cc1`, the survival is inactive: 117%.

In the case of `CC(=O)Nc1c(C)nn(-c2ccccc2)c1N1CCC(C(=O)Nc2ccccc2F)CC1`, the survival is inactive: 64%.

On to `CCOc1ccc(CNS(=O)(=O)c2ccc3c(c2)CCCN3C(C)=O)cc1`, for which the survival is inactive: 93%.

Take `Cc1ccc(C)c(NC(=O)C2CCN(c3cc(C)nc4c(-c5ccc(Cl)cc5)c(C)nn34)CC2)c1`: the survival was inactive: 87%.

In the case of `COc1ccc(-n2cc(C(=O)Oc3cc(C)cc(C)c3)c3ccccc3c2=O)cc1`, the survival was inactive: 107%.

For `COc1cccc(NC(=O)Cn2cc(C(=O)c3ccco3)c3ccccc32)c1`, the survival was inactive: 62%.

Consider `O=C(CCSc1nc(-c2ccco2)cc(C(F)(F)F)n1)NC1CC1`, for which the survival was inactive: 88%.

In the case of `CCOc1ccc(CN2C(=O)c3ccccc3C2C(=O)NCCc2ccc(OC)c(OC)c2)cc1` (stereo unspecified), the survival was inactive: 88%.

For `COc1ccccc1NC(=O)C1=C(C)Nc2ncnn2C1c1cccn1C` (stereo unspecified), the survival is active: 8%.

Consider `CCOC(=O)c1c(S(=O)(=O)N2CCC(C(=O)Nc3ccc(F)cc3F)CC2)c(C)n(C)c1C`, for which the survival is inactive: 78%.

On to `COc1ccc(CNC(=O)Cc2c(C)c3cc4c(C)coc4c(C)c3oc2=O)cc1OC`, for which the survival was inactive: 67%.

Consider `COc1ccc(Cn2c(CO)cnc2SCc2ccccc2C)cc1`, for which the survival is inactive: 88%.

As to `CC(C)c1ccc(NC(=O)Cn2cc(S(=O)(=O)Cc3ccccc3Cl)c3ccccc32)cc1`, the survival is inactive: 73%.

With `O=C(Nc1ccc2oc(-c3cccc(F)c3)nc2c1)c1ccc2ccccc2c1`, the survival is inactive: 60%.

On to `Cc1cc(C)cc(NC(=O)c2cc(S(=O)(=O)N3CCc4ccccc43)cn2C)c1`, for which the survival is inactive: 63%.

Consider `COc1ccccc1CNC(=O)c1ccc2c(c1)N(Cc1c(F)cccc1Cl)C(=O)CS2`, for which the survival was active: 43%.

For `CCCCC(Sc1nc2cc3c(cc2c(=O)n1CCCC(=O)NCc1ccc2c(c1)OCO2)OCO3)C(=O)OCC` (stereo unspecified), the survival was inactive: 82%.

For the compound `O=C(CSc1ncc(S(=O)(=O)c2ccc(Br)cc2)c(=O)[nH]1)Nc1ccc2c(c1)OCCO2`, the survival was inactive: 61%.
